According to PubChem BioAssay AID445 (National Center for Advancing Translational Sciences (NCATS), 2006):
About 40 (0.04%) of roughly 110,000 compounds were called active. Inconclusive means that the source gave no clear call. Such entries were picked first, then a sample of the others. Calls follow the shape of the dose curve; as a rule, active = well fitted curve in the direction sought with a large enough effect in the signal ratio (not every such curve was filed as active); inconclusive = small, poorly fitted or top-dose-only effect, or a change in a side signal; inactive = flat fitted curve, though single readings scatter; the % refers to the signal ratio. A potency beside an inconclusive call is a rough fit, not a confirmed value.

Assay: IkB Signaling;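 as to IkBa stabilization activation: 0% = basal untreated cells and 100% = reference inhibitor full response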
Conditions: ABC-DLBCL IkBa-CBG/CBR dual luciferase ratio (green luciferase fused to IkBa over red control in OCI-Ly3 lymphoma cells), 4 h; IkBa stabilization activation: at 57.1 µM (top of the series), scaled: untreated 0%, proteasome inhibitor 100% unless noted
In short: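 In this assay, an IκBα–CBG68 fusion accumulates when IKK-driven degradation is blocked; native CBR normalizes for cell number. OCI-Ly3 cells were treated 4 h with compound and doxycycline, then green and red light read after Chroma-Glo addition.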
Potency is read from the fitted curve at half-maximal effect.

Compound	IkBa stabilization activation	Potency
O=C(NC1CC1)c1ccc(-c2nc3ccccc3s2)s1	inconclusive: 5.83% [signal inhibitor]	
COc1cc(CN(CC2CCCO2)C(=O)c2ccccc2F)cc(OC)c1OC (configuration not stated)	inconclusive: 1.97% [signal inhibitor]	
Cc1cc(C)c(NC(=O)Cn2c(=O)n(CCCCC(=O)NCc3ccccc3Cl)c(=O)c3ccccc32)c(C)c1		inconclusive: 31.6 µM [signal activator, single point]
CCn1c(=O)cc(OCC(=O)N2CCN(c3cccc(C(F)(F)F)c3)CC2)c2ccccc21	inconclusive: -1.94% [signal inhibitor]	
Cc1ccccc1NC(=O)c1nc(-c2ccncc2)no1	inconclusive: 4.02% [signal inhibitor]	
CCC(C(=O)OCc1cc(=O)n2nc(CCOC)sc2n1)c1ccccc1 (configuration not stated)	inconclusive: 1.42% [signal inhibitor]	
Cc1ccc(-c2cn3c(n2)sc2cc(C(=O)N4CCCCC4)ccc23)cc1	inconclusive: 2.67% [signal inhibitor]	
Cc1cc(C)c2c(=O)cc(C(=O)Nc3ccc(S(=O)(=O)Nc4nc(C)cc(C)n4)cc3)oc2c1	inconclusive: 4.62% [signal inhibitor]	
O=C(O)CCc1ccc(-c2cccs2)n1-c1ccc(C(=O)O)cc1	inconclusive: 11.4% [signal inhibitor]	
Cc1noc(C)c1C(=O)N1CCC2(CC1)CN(c1ccccc1)C2	inactive: 1.45% [at 11.4 µM, scaled: untreated 0%, proteasome inhibitor 100%]	
CCOc1ccc(NC(=O)N2CCOc3ccccc32)cc1	inconclusive: 2.05% [signal inhibitor]	
O=C(C1CCN(S(=O)(=O)c2ccc(F)cc2)CC1)N1CC=C(c2ccccc2)CC1	inconclusive: 1.83% [signal inhibitor]	
Cc1ccnc(NC(c2ccccc2F)c2ccc3cccnc3c2O)c1 (configuration not stated)		inconclusive: 12.6 µM [signal inhibitor]
CCCOc1ccccc1Cn1c(=O)sc2ccccc21	inconclusive: 3.75% [signal inhibitor]	
COc1ccc(NC(=O)c2cc(C(C)C)on2)cc1OC		inconclusive: 31.6 µM [signal inhibitor, partial curve]
CCOC(=O)N1CCC(Nc2c(OCC)c(=O)c2=O)CC1	inactive: 4.57%	
Cc1ccc(N2CCn3c2nc2c3c(=O)n(CCc3ccccc3)c(=O)n2C)cc1C	inconclusive: 5% [signal inhibitor]	
Cc1cc(C(=O)CSc2nncs2)c(C)n1-c1ccc2c(c1)OCO2	inconclusive: 2.45% [signal inhibitor]	
CCOc1ccc(NC(=O)CN2C(=O)COc3ccc(S(=O)(=O)Nc4ccccc4)cc32)cc1	inconclusive: 0.783% [signal inhibitor]	
Cc1ccc(C(=O)c2coc3ccc(OCC(=O)O)cc23)cc1		inconclusive: 25.1 µM [signal inhibitor, partial curve]
COc1ccccc1NC(=O)CSc1nnnn1-c1ccc2c(c1)OCO2	inconclusive: 4.07% [signal inhibitor]	

Compound	IkBa stabilization activation	Potency
O=C(NNc1ncnc2c1cnn2-c1ccccc1)c1cccc(Cl)c1	inactive: 0.916%	
Cn1cc(S(=O)(=O)Nc2ccc(Br)cc2F)c(=O)n(C)c1=O	inconclusive: -8.02% [signal inhibitor]	
COc1cccc(-c2nnc3n(Cc4ccc(F)cc4)c(=O)c4ccccc4n23)c1	inconclusive: -0.952% [signal inhibitor]	
COc1cc(NC(=O)c2cccs2)c(C(=O)OCC(=O)NCc2ccco2)cc1OC		inconclusive: 31.6 µM [signal inhibitor, partial curve]
CC1=C(C(=O)Nc2ccc(C)cc2C)C(c2ccccc2C)n2ncnc2N1 (configuration not stated)	inconclusive: 2.58% [signal inhibitor]	
Cc1cccc(-c2nc3c(C#N)c[nH]n3c2NC2CCCCC2)c1	inconclusive: 0.423% [signal inhibitor]	
COc1cc(NC(=O)c2noc3c2CCc2ccccc2-3)cc(OC)c1OC	inconclusive: 15.3% [signal inhibitor]	
O=C(Oc1ccc(-c2cn3c(n2)SCC3)cc1)c1ccccc1	inactive: 2.49%	
CC(C)N1CCc2c(sc(NC(=O)c3ccc(S(=O)(=O)N4CCOCC4)cc3)c2C(N)=O)C1	inactive: -3.04%	
c1ccc(-n2nnc3cnccc32)cc1		inconclusive: 0.631 µM [signal inhibitor, full curve]
CCCCN(C)CCNC(=O)c1cc(-c2cccnc2)nc2ccc(S(=O)(=O)N3CCC(C)CC3)cc12	inconclusive: 2.17% [signal inhibitor]	
Cc1ccc(NC(=O)CCSCCc2ccccn2)cc1	inconclusive: -0.484% [signal inhibitor]	
CCc1ccc(-n2c(C)nnc2SCc2nc(-c3ccc(OC)cc3)no2)cc1	inconclusive: 4.69% [signal inhibitor]	
O=C(Nc1ccc(Cl)cc1Cl)c1cc(S(=O)(=O)N2CCN(c3ccccc3F)CC2)ccc1F	inconclusive: -1.71% [signal inhibitor]	
CCOC(=O)Cc1csc(NC(=O)c2csc3c2CCCC3)n1		inconclusive: 3.16 µM [signal inhibitor, full curve]
Cc1cccc(-c2nnc(-c3ccccc3)o2)c1	inconclusive: 9.7% [signal inhibitor]	
Cc1ccc(S(=O)(=O)n2nc(OC(=O)c3cccs3)cc2N)cc1	inconclusive: 15.7% [signal activator]	
O=S(=O)(c1ccccc1)N1CCN(c2ncnc3sc(-c4ccccc4)cc23)CC1	inconclusive: 5.37% [signal inhibitor]	
CC(C)(C)OC(=O)N1CCC(c2c(C(=O)NCc3ccc4c(c3)OCO4)cnn2-c2ccc(F)cc2F)CC1	inconclusive: -0.0832% [signal inhibitor]	
O=C(Nc1ccc(Cl)cc1)C1CCN(c2nc3ccccc3n3cccc23)CC1	inactive: 2.09%	
COc1ccc(CNC(=O)c2ccc3c(c2)N(Cc2ccccc2)C(=O)c2ccccc2S3(=O)=O)cc1	inconclusive: 0.178% [signal inhibitor]	
